This is one part of the list.
Experiments:
Assay in all cases: glycan array binding signal (z-score within array); higher = stronger binding
Conditions in all cases: glycan notation: IUPAC condensed, linker removed
[1] = target: Neu5Ac(a2-6)Gal(b1-4)[Fuc(a1-3)]GlcNAc(b1-3)Gal(b1-4)Glc
In short: (§1)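 Glycan array data came from 3228 arrays in the Consortium for Functional Glycomics database, and only arrays with an available protein sequence were kept. Glycan names were put into IUPAC-condensed notation, and columns mapping to the same glycan were averaged. The binding signal is a within-array Z-score, averaged across arrays of one protein sequence run at different concentrations or buffers and across linkers. A negative Z-score can be read as non-binding.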

[2] = target: Neu5Ac(a2-6)GalNAc
In short: as §1

[3] = target: Neu5Ac(a2-8)Neu5Ac
In short: as §1

[4] = target: Neu5Ac(a2-8)Neu5Ac(a2-3)Gal(b1-3)GalNAc(b1-4)[Neu5Ac(a2-3)]Gal(b1-4)Glc
In short: as §1

[5] = target: Neu5Ac(a2-8)Neu5Ac(a2-3)Gal(b1-3)GalNAc(b1-4)[Neu5Ac(a2-8)Neu5Ac(a2-3)]Gal(b1-4)Glc
In short: as §1

[6] = target: Neu5Ac(a2-8)Neu5Ac(a2-3)Gal(b1-4)Glc
In short: as §1

[7] = target: Neu5Ac(a2-8)Neu5Ac(a2-3)[Gal(b1-3)GalNAc(b1-4)]Gal(b1-4)Glc
In short: as §1

[8] = target: Neu5Ac(a2-8)Neu5Ac(a2-3)[GalNAc(b1-4)]Gal(b1-4)Glc
In short: as §1

[9] = target: Neu5Ac(a2-8)Neu5Ac(a2-8)Neu5Ac
In short: as §1

[10] = target: Neu5Ac(a2-8)Neu5Ac(a2-8)Neu5Ac(a2-8)Neu5Ac
In short: as §1

[11] = target: Neu5Ac(a2-8)Neu5Ac(a2-8)Neu5Ac(a2-8)Neu5Ac(a2-8)Neu5Ac
In short: as §1

[12] = target: Neu5Ac(a2-8)Neu5Ac(a2-8)Neu5Ac(a2-8)Neu5Ac(a2-8)Neu5Ac(a2-8)Neu5Ac
In short: as §1

[13] = target: Neu5Ac(a2-8)Neu5Ac(a2-8)Neu5Ac(a2-8)Neu5Ac(a2-8)Neu5Ac(a2-8)Neu5Ac(a2-8)Neu5Ac
In short: as §1

[14] = target: Neu5Ac(a2-8)Neu5Ac(a2-8)Neu5Ac(a2-8)Neu5Ac(a2-8)Neu5Ac(a2-8)Neu5Ac(a2-8)Neu5Ac(a2-8)Neu5Ac
In short: as §1

[15] = target: Neu5Ac(a2-8)Neu5Ac(a2-8)Neu5Ac(a2-8)Neu5Ac(a2-8)Neu5Ac(a2-8)Neu5Ac(a2-8)Neu5Ac(a2-8)Neu5Ac(a2-8)Neu5Ac
In short: as §1

[16] = target: Neu5Ac(a2-8)Neu5Ac(a2-8)Neu5Ac(a2-8)Neu5Ac(a2-8)Neu5Ac(a2-8)Neu5Ac(a2-8)Neu5Ac(a2-8)Neu5Ac(a2-8)Neu5Ac(a2-8)Neu5Ac
In short: as §1

[17] = target: Neu5Ac(b2-3)Gal(b1-4)Glc
In short: as §1

[18] = target: Neu5Ac(b2-6)Gal(b1-4)Glc
In short: as §1

[19] = target: Neu5Ac9Ac(a2-6)Gal(b1-4)GlcNAc
In short: as §1

[20] = target: Neu5Gc(a2-3)Gal(b1-4)Glc
In short: as §1

[21] = target: Neu5Gc(a2-6)Gal(b1-4)GlcNAc(b1-2)Man(a1-3)[Neu5Gc(a2-6)Gal(b1-4)GlcNAc(b1-2)Man(a1-6)]Man(b1-4)GlcNAc(b1-4)GlcNAc
In short: as §1

[22] = target: Neu5Gc(a2-6)GalNAc
In short: as §1

[23] = target: Rha(a1-6)Glc
In short: as §1

[24] = target: Xyl(a1-6)Glc(b1-4)[Xyl(a1-6)]Glc(b1-4)[Xyl(a1-6)]Glc(b1-4)Glc
In short: as §1

[25] = target: Xyl(b1-2)[Man(a1-3)][Man(a1-6)]Man(b1-4)GlcNAc(b1-4)GlcNAc
In short: as §1

[26] = target: Xyl(b1-2)[Man(a1-3)][Man(a1-6)]Man(b1-4)GlcNAc(b1-4)[Fuc(a1-3)]GlcNAc
In short: as §1

[27] = target: Xyl(b1-4)Xyl(b1-4)Xyl(b1-4)Xyl(b1-4)Xyl
In short: as §1

[28] = target: Xyl(b1-4)Xyl(b1-4)Xyl(b1-4)Xyl(b1-4)Xyl(b1-4)Xyl
In short: as §1

Measured: glycan array binding signal (z-score)

B1: MIC4-A5 (Toxoplasma gondii), Q9XZH7 (protein)
chain: SPDFHDEVECVHTGNIGSKAQTIGEVKRASSLSECRARCQAEKECSHYTYNVKSGLCYPKRGKPQFYKYLGDMTGSRTCDTS
-0.32: [17]
-0.289: [4]
-0.322: [18] | [23]
-0.321: [6]
6.1: [7]
-0.029: [5]
-0.323: all other assays above
